Results taken from ChEMBL document CHEMBL1961873, “Compounds: GSK PKIS; Assays: Nanosyn kinase panel” (2012).
For some of these results: What follows is the remainder of the data, with few or none of the strong results. Only a part is listed here, and it is no random draw.

Experiments:
[1] = target: T1, Serine/threonine-protein kinase Nek9 (Homo sapiens) (UniProt Q8TD19); conditions: at 1 µM;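 further: each value is a mean percent inhibition of NEK9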
T1 sequence (whole entry): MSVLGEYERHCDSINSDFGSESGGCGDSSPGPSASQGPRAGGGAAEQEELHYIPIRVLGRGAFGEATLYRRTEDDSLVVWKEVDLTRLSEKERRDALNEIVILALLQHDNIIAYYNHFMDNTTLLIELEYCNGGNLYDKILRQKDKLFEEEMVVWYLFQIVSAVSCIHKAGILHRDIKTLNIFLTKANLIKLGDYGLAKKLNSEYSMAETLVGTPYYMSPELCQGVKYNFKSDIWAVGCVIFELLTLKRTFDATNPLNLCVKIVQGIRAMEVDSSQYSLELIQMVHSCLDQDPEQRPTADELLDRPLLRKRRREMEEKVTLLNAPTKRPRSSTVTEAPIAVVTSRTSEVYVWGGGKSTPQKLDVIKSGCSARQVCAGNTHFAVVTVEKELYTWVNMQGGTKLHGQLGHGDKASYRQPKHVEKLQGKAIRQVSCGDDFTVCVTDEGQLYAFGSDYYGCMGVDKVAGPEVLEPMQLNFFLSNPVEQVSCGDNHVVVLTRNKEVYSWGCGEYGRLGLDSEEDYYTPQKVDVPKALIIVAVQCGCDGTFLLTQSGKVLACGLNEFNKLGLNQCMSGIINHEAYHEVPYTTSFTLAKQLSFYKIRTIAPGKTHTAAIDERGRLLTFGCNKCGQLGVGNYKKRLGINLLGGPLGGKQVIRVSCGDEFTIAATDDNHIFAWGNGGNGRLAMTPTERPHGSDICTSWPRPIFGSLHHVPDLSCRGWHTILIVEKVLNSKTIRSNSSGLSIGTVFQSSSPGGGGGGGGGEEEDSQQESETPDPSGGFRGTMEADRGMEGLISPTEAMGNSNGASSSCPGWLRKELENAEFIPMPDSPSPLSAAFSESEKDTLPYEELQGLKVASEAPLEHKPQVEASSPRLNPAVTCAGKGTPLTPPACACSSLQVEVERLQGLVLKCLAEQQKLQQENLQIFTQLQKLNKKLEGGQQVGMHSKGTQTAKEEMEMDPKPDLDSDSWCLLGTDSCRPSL

[2] = target: Serine/threonine-protein kinase PLK1 (Homo sapiens) (UniProt P53350); conditions: at 0.1 µM
[3] = target: Serine/threonine-protein kinase PLK1 (Homo sapiens) (UniProt P53350); conditions: at 1 µM
[4] = target: T2, Dual specificity protein kinase TTK (Homo sapiens) (UniProt P33981); conditions: at 0.1 µM
T2 sequence (whole entry): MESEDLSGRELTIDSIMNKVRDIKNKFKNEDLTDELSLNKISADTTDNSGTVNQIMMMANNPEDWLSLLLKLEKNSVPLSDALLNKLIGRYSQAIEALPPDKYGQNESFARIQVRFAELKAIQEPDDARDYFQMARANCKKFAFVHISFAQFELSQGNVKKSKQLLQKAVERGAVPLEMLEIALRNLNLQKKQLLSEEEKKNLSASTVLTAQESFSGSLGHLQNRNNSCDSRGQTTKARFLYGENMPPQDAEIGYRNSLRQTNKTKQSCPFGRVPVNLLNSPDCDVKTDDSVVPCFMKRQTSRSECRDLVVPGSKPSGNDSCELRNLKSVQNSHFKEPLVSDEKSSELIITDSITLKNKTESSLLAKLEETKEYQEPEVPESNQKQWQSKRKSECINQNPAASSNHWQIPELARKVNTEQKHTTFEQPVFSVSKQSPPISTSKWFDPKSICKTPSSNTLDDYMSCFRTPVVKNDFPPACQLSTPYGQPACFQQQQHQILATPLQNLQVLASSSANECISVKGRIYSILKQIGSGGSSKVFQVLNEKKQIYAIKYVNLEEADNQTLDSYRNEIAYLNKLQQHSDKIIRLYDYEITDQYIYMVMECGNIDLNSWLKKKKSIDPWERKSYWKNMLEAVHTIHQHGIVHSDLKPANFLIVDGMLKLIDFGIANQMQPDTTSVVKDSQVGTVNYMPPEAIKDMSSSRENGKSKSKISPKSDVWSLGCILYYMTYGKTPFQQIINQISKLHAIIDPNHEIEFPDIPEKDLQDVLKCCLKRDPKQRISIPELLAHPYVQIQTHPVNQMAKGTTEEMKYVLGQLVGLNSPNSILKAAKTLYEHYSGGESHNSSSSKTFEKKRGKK

[5] = tested on: T3, Receptor-type tyrosine-protein kinase FLT3 (Homo sapiens), P36888 [D835Y]; conditions: at 1 µM
T3 sequence (whole entry): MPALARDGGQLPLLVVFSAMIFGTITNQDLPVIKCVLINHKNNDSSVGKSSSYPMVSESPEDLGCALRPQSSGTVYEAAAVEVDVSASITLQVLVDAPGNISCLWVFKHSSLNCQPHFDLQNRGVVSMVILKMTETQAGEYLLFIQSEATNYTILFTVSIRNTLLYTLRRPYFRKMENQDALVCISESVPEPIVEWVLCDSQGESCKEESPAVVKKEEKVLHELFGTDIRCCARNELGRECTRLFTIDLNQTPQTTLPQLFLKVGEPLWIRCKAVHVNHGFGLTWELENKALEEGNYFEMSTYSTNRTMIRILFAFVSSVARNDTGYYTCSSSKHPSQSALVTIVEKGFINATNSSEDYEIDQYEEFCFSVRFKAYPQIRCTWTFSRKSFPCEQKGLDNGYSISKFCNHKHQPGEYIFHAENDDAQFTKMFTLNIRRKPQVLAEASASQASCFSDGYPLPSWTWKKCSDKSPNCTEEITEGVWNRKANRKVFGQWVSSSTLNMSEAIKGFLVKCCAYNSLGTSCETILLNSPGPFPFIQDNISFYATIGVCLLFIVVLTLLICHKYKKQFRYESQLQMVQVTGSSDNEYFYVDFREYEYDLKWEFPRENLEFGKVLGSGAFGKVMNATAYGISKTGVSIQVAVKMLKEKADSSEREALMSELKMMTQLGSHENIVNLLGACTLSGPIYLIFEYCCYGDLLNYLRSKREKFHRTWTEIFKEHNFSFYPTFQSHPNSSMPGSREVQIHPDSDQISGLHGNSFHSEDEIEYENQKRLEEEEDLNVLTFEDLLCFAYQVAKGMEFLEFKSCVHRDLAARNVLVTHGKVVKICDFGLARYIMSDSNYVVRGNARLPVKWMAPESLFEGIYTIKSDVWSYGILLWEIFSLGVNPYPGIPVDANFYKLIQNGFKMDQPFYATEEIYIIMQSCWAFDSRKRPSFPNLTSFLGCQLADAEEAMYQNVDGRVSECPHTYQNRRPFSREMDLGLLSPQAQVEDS

[6] = target: Vascular endothelial growth factor receptor 3 (Homo sapiens) (UniProt P35916); conditions: at 0.1 µM
[7] = target: Vascular endothelial growth factor receptor 3 (Homo sapiens) (UniProt P35916); conditions: at 1 µM
[8] = target: Macrophage colony-stimulating factor 1 receptor (Homo sapiens) (UniProt P07333); conditions: at 0.1 µM
[9] = target: Macrophage colony-stimulating factor 1 receptor (Homo sapiens) (UniProt P07333); conditions: at 1 µM
[10] = target: Tyrosine-protein kinase Fyn (Homo sapiens) (UniProt P06241); conditions: at 0.1 µM
Sequence of UniProt P06241 (P06241 whole entry, looked up): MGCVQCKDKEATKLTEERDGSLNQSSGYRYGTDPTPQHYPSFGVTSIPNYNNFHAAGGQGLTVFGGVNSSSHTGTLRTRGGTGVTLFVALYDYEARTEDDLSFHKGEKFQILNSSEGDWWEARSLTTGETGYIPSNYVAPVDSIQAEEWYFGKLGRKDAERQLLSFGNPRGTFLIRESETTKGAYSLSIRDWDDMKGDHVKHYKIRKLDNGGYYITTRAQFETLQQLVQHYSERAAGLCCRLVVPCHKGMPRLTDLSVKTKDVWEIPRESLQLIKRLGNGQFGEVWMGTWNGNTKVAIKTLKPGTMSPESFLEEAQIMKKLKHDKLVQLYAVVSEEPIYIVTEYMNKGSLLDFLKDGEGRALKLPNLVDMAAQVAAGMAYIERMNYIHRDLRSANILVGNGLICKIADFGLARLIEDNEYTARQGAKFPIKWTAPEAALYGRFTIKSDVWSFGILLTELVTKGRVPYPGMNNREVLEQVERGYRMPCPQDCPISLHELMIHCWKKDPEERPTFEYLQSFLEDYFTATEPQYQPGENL

Sequence of UniProt P35916 (P35916 whole entry): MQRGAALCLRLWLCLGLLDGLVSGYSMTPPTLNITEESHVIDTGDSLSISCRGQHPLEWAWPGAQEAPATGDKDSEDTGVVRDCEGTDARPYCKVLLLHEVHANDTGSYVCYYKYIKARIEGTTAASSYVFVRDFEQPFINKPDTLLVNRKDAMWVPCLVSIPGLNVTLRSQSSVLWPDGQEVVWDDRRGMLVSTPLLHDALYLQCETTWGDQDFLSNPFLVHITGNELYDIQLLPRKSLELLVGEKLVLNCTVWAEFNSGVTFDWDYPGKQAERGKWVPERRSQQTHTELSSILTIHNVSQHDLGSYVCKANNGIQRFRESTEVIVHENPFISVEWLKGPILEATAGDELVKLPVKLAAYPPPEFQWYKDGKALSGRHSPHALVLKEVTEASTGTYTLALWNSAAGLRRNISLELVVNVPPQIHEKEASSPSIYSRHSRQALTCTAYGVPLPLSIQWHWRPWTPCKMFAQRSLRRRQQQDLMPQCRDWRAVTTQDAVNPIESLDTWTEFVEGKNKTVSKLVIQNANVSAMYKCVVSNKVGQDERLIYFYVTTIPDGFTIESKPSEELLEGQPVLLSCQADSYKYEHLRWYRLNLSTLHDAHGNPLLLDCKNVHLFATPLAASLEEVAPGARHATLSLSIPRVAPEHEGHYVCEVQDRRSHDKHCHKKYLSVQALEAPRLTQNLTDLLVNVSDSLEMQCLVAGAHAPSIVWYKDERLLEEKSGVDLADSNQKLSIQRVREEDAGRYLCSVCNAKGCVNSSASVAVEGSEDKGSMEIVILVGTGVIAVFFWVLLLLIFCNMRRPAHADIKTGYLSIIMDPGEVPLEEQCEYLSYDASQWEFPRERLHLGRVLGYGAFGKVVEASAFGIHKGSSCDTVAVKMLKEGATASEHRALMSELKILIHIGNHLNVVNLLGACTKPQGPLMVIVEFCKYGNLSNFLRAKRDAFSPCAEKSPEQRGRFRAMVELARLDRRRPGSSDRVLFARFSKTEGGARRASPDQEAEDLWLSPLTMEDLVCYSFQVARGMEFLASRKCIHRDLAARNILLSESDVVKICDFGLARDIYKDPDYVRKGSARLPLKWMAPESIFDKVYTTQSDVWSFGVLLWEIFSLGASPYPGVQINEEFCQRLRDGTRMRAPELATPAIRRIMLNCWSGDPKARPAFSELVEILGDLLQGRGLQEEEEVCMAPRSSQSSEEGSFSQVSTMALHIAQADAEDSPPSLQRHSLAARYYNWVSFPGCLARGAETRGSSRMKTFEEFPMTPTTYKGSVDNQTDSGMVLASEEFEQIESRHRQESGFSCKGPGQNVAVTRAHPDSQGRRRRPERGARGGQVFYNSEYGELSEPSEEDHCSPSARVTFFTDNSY
Sequence of UniProt P07333 (P07333 whole entry): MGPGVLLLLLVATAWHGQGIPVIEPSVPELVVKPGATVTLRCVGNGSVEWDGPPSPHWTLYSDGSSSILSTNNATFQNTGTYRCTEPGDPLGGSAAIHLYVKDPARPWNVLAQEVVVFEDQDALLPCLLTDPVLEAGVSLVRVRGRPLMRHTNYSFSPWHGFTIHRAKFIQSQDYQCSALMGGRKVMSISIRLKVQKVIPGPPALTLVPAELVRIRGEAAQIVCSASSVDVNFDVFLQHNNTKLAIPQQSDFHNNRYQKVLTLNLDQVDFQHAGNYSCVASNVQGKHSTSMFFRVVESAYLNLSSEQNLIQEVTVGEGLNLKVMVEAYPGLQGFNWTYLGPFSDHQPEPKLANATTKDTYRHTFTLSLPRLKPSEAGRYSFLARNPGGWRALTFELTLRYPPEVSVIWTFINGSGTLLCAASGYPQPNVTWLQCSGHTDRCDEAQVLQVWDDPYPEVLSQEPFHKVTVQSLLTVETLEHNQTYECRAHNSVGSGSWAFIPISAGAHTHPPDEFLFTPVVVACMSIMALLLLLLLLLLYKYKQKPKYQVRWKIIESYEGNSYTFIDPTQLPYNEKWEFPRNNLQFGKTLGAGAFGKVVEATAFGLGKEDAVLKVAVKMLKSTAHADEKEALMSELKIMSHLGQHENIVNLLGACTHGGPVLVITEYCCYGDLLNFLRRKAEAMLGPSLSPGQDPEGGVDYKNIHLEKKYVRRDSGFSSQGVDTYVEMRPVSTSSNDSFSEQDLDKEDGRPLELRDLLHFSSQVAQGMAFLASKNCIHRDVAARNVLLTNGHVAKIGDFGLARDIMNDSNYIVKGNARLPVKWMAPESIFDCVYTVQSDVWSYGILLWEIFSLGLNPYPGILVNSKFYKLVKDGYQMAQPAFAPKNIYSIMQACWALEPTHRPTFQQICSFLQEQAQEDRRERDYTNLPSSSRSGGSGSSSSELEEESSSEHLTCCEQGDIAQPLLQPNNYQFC
Sequence of UniProt P53350 (P53350 whole entry): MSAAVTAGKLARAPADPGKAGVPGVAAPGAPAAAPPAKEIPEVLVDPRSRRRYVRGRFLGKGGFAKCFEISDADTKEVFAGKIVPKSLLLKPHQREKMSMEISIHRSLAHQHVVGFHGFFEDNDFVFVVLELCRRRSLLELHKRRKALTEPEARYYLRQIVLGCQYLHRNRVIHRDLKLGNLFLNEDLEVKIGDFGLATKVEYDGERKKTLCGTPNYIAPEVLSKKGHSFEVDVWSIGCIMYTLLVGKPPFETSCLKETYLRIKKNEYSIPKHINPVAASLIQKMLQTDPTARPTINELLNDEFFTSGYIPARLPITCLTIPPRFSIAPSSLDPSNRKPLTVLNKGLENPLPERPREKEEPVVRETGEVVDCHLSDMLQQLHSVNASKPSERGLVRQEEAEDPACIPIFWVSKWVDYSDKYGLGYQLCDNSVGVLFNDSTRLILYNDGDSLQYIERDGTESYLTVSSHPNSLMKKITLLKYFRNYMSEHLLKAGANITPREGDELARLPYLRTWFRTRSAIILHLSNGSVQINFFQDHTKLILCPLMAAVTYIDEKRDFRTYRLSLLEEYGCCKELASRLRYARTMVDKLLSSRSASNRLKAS

NC(=O)CCc1ccccc1Oc1nccc(-c2c(-c3ccc(F)cc3)ncn2C2CCNCC2)n1
inhibition [1]: 2.86% | inhibition [2]: -0.62% | inhibition [3]: 1.09% | inhibition [4]: 2.26% | inhibition [5]: 1.87% | inhibition [6]: 0.39% | inhibition [7]: 3.67% | inhibition [8]: -3.35% | inhibition [9]: -0.19% | inhibition [10]: 0.6%
